Among all 340,000 compounds or so, about 12,000 (3.5%) were called active. Inconclusive results, whose numbers are uncertain, are shown with a selection of clear calls. Calls follow the shape of the dose curve; as a rule, active = well fitted inhibition curve with a large enough effect; inconclusive = small, poorly fitted or top-dose-only effect, or another doubt; inactive = no such curve, though single readings can be large or run the other way. No potency is given beside an inconclusive call; the fits are too rough.
Test: qHTS Assay for Inhibitors of Hepatitis C Virus (HCV)
Details: Huh7.5.1 HCVcc-Cre (HCVcc is cell-culture hepatitis C virus) infection, luciferase reporter, 44 h; activity change, negative = inhibition: at 41.8 µM (top of the series) unless noted
How it was run: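 Infectious HCVcc-Cre (~0.5 moi) was added to cells just after compound, with cells seeded 4 h earlier at 1,000 per well. Luciferase activity after 44 h culture reported infection; substrate was incubated 15 min at room temperature before reading.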
% is scaled to controls: 0 for no effect and ±100 for the full control effect; potency is read from the fitted curve at half-maximal effect; tags tell the direction and shape of the fitted curve.

Compound | Potency | activity change, negative = inhibition
Cc1ccc(-c2nn(-c3ccccc3)cc2C(=O)N2CCN(c3ccccn3)CC2)cc1 | active: 11.2 µM | –
Cc1ccc(-n2nnnc2CCl)cc1 | inconclusive [inhibitor, single point] | –
CCOC(=O)/C(=C/C=C1\Sc2ccccc2N1CC)C(C)=O | inconclusive [inhibitor, partial curve, poor fit] | –
CCC(C)Sc1ccc([C@@H]2[C@H]3C(=O)N(CC)C(=O)[C@H]3[C@]3(C(=O)OC)CCCCN23)cc1 (stereo partly specified) | – | inactive: 6.35%
COc1ccc(Nc2nc(C(=O)NCCCN3CCOCC3)cs2)cc1 | – | inactive: -7.46%
Cc1cc(O)cc(O)c1-c1onc(C(F)(F)F)c1-c1cscn1 | inconclusive [inhibitor, partial curve] | –
COc1ccc2nc(NC(=O)CN(C)S(=O)(=O)c3cccs3)sc2c1 | inconclusive [inhibitor, partial curve, poor fit] | –
CCCN1CCN(CCCNC(=O)c2cc3c(s2)-c2ccccc2OC3)CC1 | active: 10 µM | –
O=C(CN(Cc1ccc(Cl)c(Cl)c1)S(=O)(=O)c1ccccc1)N/N=C\c1ccc2c(c1)OCO2 | inconclusive [inhibitor, single point] | –
O=C(Nc1ccc(CN2CCOCC2)cc1)c1ccco1 | – | inactive: 1.01%
COc1ccccc1NC(=O)CSc1nnc(-c2ccco2)o1 | – | inactive: 13.1%
N#Cc1cccc(NC(=O)c2ccc(S(=O)(=O)N3CCOCC3)cc2)c1 | inconclusive [inhibitor, single point] | –
Cc1ccc(C)c(Nc2nc3ccccc3[nH]2)c1 | inconclusive [inhibitor, single point] | –
CC1O[C@@H]2O[C@](O[C@H](C)CC[C@@H](C)O)(c3ccccc3)O[C@@H]2C[C@H]1O (stereo partly specified) | inconclusive [inhibitor, single point] | –
Cc1ccc(S(=O)(=O)c2c(COC(=O)c3ccccc3Cl)c(-c3ccccc3)nn2C)cc1 | inconclusive [inhibitor, single point] | –
NS(=O)(=O)c1ccc(CCNC(=O)C(=O)NCC2OCCN2S(=O)(=O)c2ccc(Cl)cc2)cc1 (stereo unspecified) | inconclusive [inhibitor, single point] | –
C=CCOn1c(C)c(C(C)=O)c2c3no[n+]([O-])c3ccc21 | inconclusive [inhibitor, partial curve] | –
Cc1ccc(-n2c(-c3ccc(Cl)cc3)n[nH]c2=S)c(C)c1 | inconclusive [inhibitor, single point] | –
Oc1ccc(C[C@@H]2CNCCN2CCc2cc(C(F)(F)F)cc(C(F)(F)F)c2)cc1 | inconclusive [inhibitor, partial curve] | –
COC(=O)C1=C(CCc2ccccc2)NC(=O)NC1c1ccc(Br)cc1 (stereo unspecified) | inconclusive [inhibitor, single point] | –
CCOc1ccccc1CNC(=O)c1cc2occc2n1C | – | inactive: -13.1%
O=c1cc(-c2ccc(O)c(O)c2)oc2ccc3ccccc3c12 | inconclusive [inhibitor, partial curve] | –

Compound | Potency | activity change, negative = inhibition
O=C(c1cc(Cl)nc2ccccc12)N(Cc1nnc(-c2ccc(Cl)cc2)o1)C1CC1 | inconclusive [inhibitor, full curve, poor fit] | –
COc1ccc(C2=C(C=C(C#N)C#N)C(c3ccccc3C)c3ccccc3O2)cc1OC (stereo unspecified) | inconclusive [inhibitor, partial curve] | –
COc1ccc2nc(NC(=O)/C=C/c3ccc4c(c3)OCO4)sc2c1 | – | inactive: 12.8%
CCCCCN(C(=O)CCC(=O)OCC(=O)c1c(C)cc(C)cc1C)c1c(N)n(CCCC)c(=O)[nH]c1=O | inconclusive [inhibitor, single point] | –
O=C(CNS(=O)(=O)c1ccc(F)cc1)Nc1ccc(C(F)(F)F)cc1 | inconclusive [inhibitor, single point] | –
Cc1ccc(NC(=O)CCCCCC2NC(=O)NC2C)cc1 (stereo unspecified) | – | inactive: 6.54%
CCC(=O)N1CCN(c2ccc(NC(=O)c3ccc([N+](=O)[O-])o3)cc2)CC1 | inconclusive [inhibitor, partial curve] | –
C[C@]12c3[nH]c4ccc(Cl)cc4c3CCN1C(=O)[C@@H](CC(=O)NCCc1ccccn1)C[C@@H]2C(=O)N1CCCCC1 | inconclusive [inhibitor, single point] | –
CCOC(=O)/C=C1\CN(C(C)c2ccccc2)S(=O)(=O)c2ccccc21 (stereo unspecified) | – | inactive: -3.61%
Cc1ccc(S(=O)(=O)N(C(=O)c2ccncc2)c2ccc(OC(=O)c3ccncc3)c3ccccc23)cc1 | inconclusive [inhibitor, single point] | –
Cc1cccc(NC(=O)Cn2cc(C(=O)c3ccco3)c3ccccc32)c1 | inconclusive [inhibitor, partial curve] | –
COc1ccc(-c2oc3ncn(CCN4CCOCC4)c(=N)c3c2-c2ccc(OC)cc2)cc1 | active: 12.6 µM | –
Cc1ccc(C2=NC(=O)/C(=C/c3cc(O)c(O)c(Br)c3)S2)cc1 | – | inactive: -12%
COc1ccc(N2CCN(C(=O)CCCC3=NS(=O)(=O)c4ccccc4N3)CC2)cc1 | – | inactive: 6.52%
CCC12CN3CCN(CC(C3)C1O)C2 (stereo unspecified) | inconclusive [inhibitor, single point] | –
CCCCNc1cc(=O)oc2ccccc12 | inconclusive [inhibitor, single point] | –
Cc1cccc(C(=O)N(Cc2cccs2)C2CCS(=O)(=O)C2)c1 (stereo unspecified) | – | inactive: 9.37%
C/C(=N/NC(=O)C(O)(c1ccccc1)c1ccccc1)c1ccc([N+](=O)[O-])o1 | inconclusive [inhibitor, single point] | –
COc1cc(C)ccc1OCc1cc(C(=O)N2CCCCCCC2)no1 | – | inactive: 9.15%
CC(=O)c1cccc(NC(=O)COc2cc3oc(=O)c(CC(C)O)c(C)c3cc2Cl)c1 (stereo unspecified) | inconclusive [inhibitor, partial curve] | –
Cc1nc2cc(NC(=O)c3ccc([N+](=O)[O-])s3)ccc2s1 | inconclusive [inhibitor, full curve] | –
Cc1nc2ccccn2c1C(=O)CSc1ccccc1Cl | inconclusive [inhibitor, single point] | –

Compound | Potency | activity change, negative = inhibition
N=c1c(C(=O)NCCN2CCOCC2)cc2c(=O)n3ccccc3nc2n1Cc1ccc(F)cc1 | inconclusive [inhibitor, partial curve] | –
CN(CC(=O)Nc1ccc(S(=O)(=O)N2CCCC2)cc1)Cc1ccc(Cl)cc1 | inconclusive [inhibitor, single point] | –
O=C(c1ccc(F)cc1)C1CCN(Cc2cn[nH]c2-c2ccccc2)CC1 | inconclusive [inhibitor, full curve, poor fit] | –
CC(=O)c1ccc(N2CCN(C(=O)CCC(=O)Nc3ccc4nc(N5CCN(C)CC5)cc(C)c4c3)CC2)cc1 | active: 8.91 µM | –
COc1ccc(CCNCC(O)Cn2c3ccccc3c3ccccc32)cc1OC (stereo unspecified) | active: 11.2 µM | –
COc1ccccc1Nc1nc(NCCCN(C)C)nc(N)c1[N+](=O)[O-] | inconclusive [inhibitor, partial curve] | –
CCc1ccc(/C(C)=N/NC(=O)CNC(=O)/C=C/c2ccccc2OC)cc1 | inconclusive [inhibitor, partial curve] | –
COc1cc(NC(=O)c2ccco2)c(OC)cc1NC(=O)CCC(=O)Nc1cc(C)cc(C)c1 | inconclusive [inhibitor, partial curve] | –
Cc1cccc2cc(C#N)c(NCc3ccccc3)nc12 | inconclusive [inhibitor, partial curve] | –
O=C(c1cnn2c(C(F)(F)F)cc(-c3cccs3)nc12)N1CCN(C(c2ccccc2)c2ccccc2)CC1 | inconclusive [inhibitor, single point] | –
c1ccc(CC2CCN(C(c3cccs3)c3nnnn3C3CCCC3)CC2)cc1 (stereo unspecified) | inconclusive [inhibitor, single point] | –
CCn1c2ccccc2c2cc(NC(=O)CSc3nnc(-c4ccc(OC)cc4)n3N)ccc21 | inconclusive [inhibitor, partial curve] | –
CCOC(=O)c1ccc(NC(=O)CSc2ncccn2)cc1 | inconclusive [inhibitor, single point] | –
CC(NCC(=O)Nc1ccccc1C(=O)NC1CC1)c1ccccc1Cl (stereo unspecified) | inconclusive [inhibitor, full curve, poor fit] | –
Cc1cccc(Cn2nc(-n3cccc3)c3c(C)cc(C)nc32)c1 | inconclusive [inhibitor, single point] | –
CN(CC(=O)Nc1ccccc1C(F)(F)F)C(=O)CSCc1ccc(Cl)c(Cl)c1 | inconclusive [inhibitor, single point] | –
CCCCS(=O)(=O)/C=C\C=C/S(=O)(=O)CCCC | active: 2.51 µM | –
Cc1ccc(-c2nc(C#N)c(NCc3ccco3)o2)cc1 | – | inactive: -25.9%
CCCn1nnc(NC(=O)c2ccc(-c3cccc(Cl)c3)o2)n1 | inconclusive [inhibitor, partial curve] | –
NC(=O)COc1c(-c2ccco2)oc2ccccc2c1=O | inconclusive [inhibitor, partial curve, poor fit] | –
CCN(CC)C(=O)c1ccc(NC(=O)CNC(C)c2cccc3ccccc23)cc1 (stereo unspecified) | inconclusive [inhibitor, single point] | –
Cc1ccc(OCCn2ncc3ccccc3c2=O)c(C)c1 | – | inactive: -24.8%
